According to the supplement of paper PMC7125110:
± gives the standard error. Variants at the background level are over-represented here.

B1: glmS ribozyme (parent)
chain: AUAAAAGCGCCAGAACUACAGAAAUGUAGUUGACGAGGAGGAGGUUUAUCGAAUUUUCGGCGGAUGCCUCCAAA

Assays:
Settings in all cases: with glucosamine-6-phosphate
glucosamine-6-phosphate [1] = variants of: B1; assay: self-cleavage kobs at 40 uM GlcN6P; higher = faster cleavage; RNA array
Procedure, shortened: (§1)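 Tracking of barcoded ribozyme variants used a hybridised Cy3 probe at 37 °C, after in situ transcription by E. coli RNA polymerase on sequenced MiSeq chips. The flowed solution held 40 μM to 10 mM glucosamine-6-phosphate in HEPES/KCl/Mg(OAc)2 buffer, and imaging ran over ~14 h. kobs was taken from exponential decay fits of normalised per-tile medians, and kcat and KM from weighted Michaelis–Menten fits.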

glucosamine-6-phosphate [2] = variants of: B1; assay: self-cleavage kobs at 10000 uM GlcN6P; higher = faster cleavage; RNA array
Procedure, shortened: as §1

glucosamine-6-phosphate [3] = variants of: B1; assay: self-cleavage kobs at 640 uM GlcN6P; higher = faster cleavage; RNA array
Procedure, shortened: as §1

glucosamine-6-phosphate [4] = variants of: B1; assay: self-cleavage kobs at 160 uM GlcN6P; higher = faster cleavage; RNA array
Procedure, shortened: as §1

glucosamine-6-phosphate [5] = variants of: B1; assay: self-cleavage kobs at 2500 uM GlcN6P; higher = faster cleavage; RNA array
Procedure, shortened: as §1

Variant	self-cleavage kobs at 40 uM GlcN6P (glucosamine-6-phosphate [1])	self-cleavage kobs at 10000 uM GlcN6P (glucosamine-6-phosphate [2])	self-cleavage kobs at 640 uM GlcN6P (glucosamine-6-phosphate [3])	self-cleavage kobs at 160 uM GlcN6P (glucosamine-6-phosphate [4])	self-cleavage kobs at 2500 uM GlcN6P (glucosamine-6-phosphate [5])
A12C A33C C71G	< 1e-05 s⁻¹	< 1e-05 s⁻¹	–	–	–
A12C A39U C58U C61G	< 1e-05 s⁻¹	–	–	–	–
A12C C16G A52G U57G	< 1e-05 s⁻¹	–	–	–	–
A12C C50G	5.75e-05 ± 1.5e-05 s⁻¹	–	5.32e-05 ± 1.5e-05 s⁻¹	0.000244 ± 8.9e-05 s⁻¹	8.38e-05 ± 1.9e-05 s⁻¹
A12C C50U C61G	< 1e-05 s⁻¹	< 1e-05 s⁻¹	–	–	–
A12C C58U G63U	< 1e-05 s⁻¹	< 1e-05 s⁻¹	–	–	–
A12C U30C G41A U45G U46G	< 1e-05 s⁻¹	< 1e-05 s⁻¹	< 1e-05 s⁻¹	–	< 1e-05 s⁻¹
A12C U31A A48G	< 1e-05 s⁻¹	–	–	–	–
A12C U45G A64U	< 1e-05 s⁻¹	–	< 1e-05 s⁻¹	–	–
A12C U49C U56G C58G	< 1e-05 s⁻¹	< 1e-05 s⁻¹	< 1e-05 s⁻¹	–	–
A12C U57G	< 1e-05 s⁻¹	–	–	< 1e-05 s⁻¹	–
A12G A14C G38C U49G G60U C67U	< 1e-05 s⁻¹	–	< 1e-05 s⁻¹	–	–
A12G G29U G44A G63A	< 1e-05 s⁻¹	–	–	–	–
A12G G38A	< 1e-05 s⁻¹	< 1e-05 s⁻¹	–	–	–
A12G G38C	< 1e-05 s⁻¹	< 1e-05 s⁻¹	< 1e-05 s⁻¹	< 1e-05 s⁻¹	< 1e-05 s⁻¹
A12U A48C C61G	< 1e-05 s⁻¹	< 1e-05 s⁻¹	< 1e-05 s⁻¹	< 1e-05 s⁻¹	< 1e-05 s⁻¹
A12U C16U G62A	< 1e-05 s⁻¹	–	–	–	–
A12U G40C	0.000175 ± 2e-05 s⁻¹	0.00509 ± 0.00057 s⁻¹	0.0014 ± 0.00029 s⁻¹	0.000567 ± 9.5e-05 s⁻¹	0.00529 ± 0.0011 s⁻¹
A12U U46C	0.000227 ± 3.3e-05 s⁻¹	0.0123 ± 0.0017 s⁻¹	0.00223 ± 0.00068 s⁻¹	0.00106 ± 0.00025 s⁻¹	0.00688 ± 0.0018 s⁻¹
G13A A15C G38U A48G A52C	< 1e-05 s⁻¹	< 1e-05 s⁻¹	–	–	–
G13A A36C G41C U55C C71A	< 1e-05 s⁻¹	< 1e-05 s⁻¹	–	–	–
G13A A39C G59A	< 1e-05 s⁻¹	< 1e-05 s⁻¹	–	–	–
G13A C50U G60U	< 1e-05 s⁻¹	–	–	–	–
G13A G63C	< 1e-05 s⁻¹	–	< 1e-05 s⁻¹	< 1e-05 s⁻¹	< 1e-05 s⁻¹
